Assay results published in PubChem BioAssay AID1508642 (National Center for Advancing Translational Sciences (NCATS), 2021).
The whole screen tested about 43,000 compounds, of which about 200 (0.47%) were called active. Inconclusive results (about 12%) are left out. The call rests on the fitted dose curve; in most records, active means well fitted cell-killing curve with a large enough effect; inconclusive means small, poorly fitted or top-dose-only effect, or effect the other way; inactive means flat fitted curve, though single readings scatter. The list shows a part of the results.

Test: Cell viability qHTS assay in S16 Pmp22-F2sN cells; further: nearly all actives have a fitted effect of over 65% in size
Settings: S16 Pmp22-F2sN Schwann cells (luciferase reporters placed in the Pmp22 gene) viability, CellTiter-Glo, 24 h; series mostly up to 57.5 µM; activity change, negative = cytotoxicity: at the top concentration
Procedure, shortened: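 Seed 500-1,000 S16 Pmp22-F2sN cells per well in phenol-red-free DMEM with 10% heat-inactivated FBS; pin-add 23 nL compound; incubate 24 h at 37C; add CellTiter-Glo, wait 15 min protected from light; read luminescence.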
On the % scale 0 is the no-effect control and ±100 the full control effect.

| SMILES | activity change, negative = cytotoxicity |
| --- | --- |
| Cc1ccc(CCNC(=O)CCCn2c(=O)c3ccccc3n(CC(=O)Nc3cc(Cl)ccc3C)c2=O)cc1 | inactive: 8.29% |
| Cc1ccc(CN2CCSc3ccc(C(=O)Nc4cc(C)cc(C)c4)cc32)cc1 | inactive: -7.81% |
| CN(C(=O)CSc1nnc(-c2ccc([N+](=O)[O-])cc2)o1)C1CCCCC1 | inactive: -5.69% |
| COc1ccc(-c2nc3scc(CCNS(=O)(=O)c4cc(F)ccc4OC)n3n2)cc1OC | inactive: 1.69% |
| O=C(Nc1ccc2oc(-c3ccccc3)nc2c1)c1ccc2ccccc2c1 | inactive: -18.1% |
| CC(=O)N1c2ccc(S(=O)(=O)N3CCCCCC3)cc2CC1C(=O)NCc1ccccc1 (stereo not drawn) | inactive: -14.3% |
| COCCn1c(C)cc(O)c(C(c2ccccc2)N2CCN(CCO)CC2)c1=O (stereo not drawn) | inactive: -8.24% |
| COc1cc2c(cc1OC)C(COc1ccc3c(C)cc(=O)oc3c1)N(C(=O)c1cccc(OC)c1OC)CC2 (stereo not drawn) | inactive: -6.25% |
| Cc1ccc2c(Sc3ccc(Cl)cc3)c(C(=O)NCCC(C)C)[nH]c2c1 | inactive: 9.19% |
| Cc1c(C(=O)N(Cc2ccc(N(C)C)cc2)CC2CCCO2)oc2ccccc12 (stereo not drawn) | inactive: 0.0658% |
| Cc1nc2sc(C)c(C)n2c(=O)c1S(=O)(=O)N1CCN(c2ccccc2F)CC1 | inactive: -9.62% |
| Cc1cc(C)cc(OCC(=O)Nc2nonc2-c2ccc(Br)cc2)c1 | inactive: -1.96% |
| COc1ccc2[nH]cc(CCNC(=O)Nc3ccccc3)c2c1 | inactive: -1.73% |
| COc1ccc(CN(C(=O)c2ccccc2F)C2CCS(=O)(=O)C2)cc1 (stereo not drawn) | inactive: -9.31% |
| Cc1ccc(NC(=O)CN2C(=O)c3cccnc3Sc3ccccc32)cc1C | inactive: 18.7% |
| CCCSc1ncc(Cl)c(C(=O)Nc2ccc(S(=O)(=O)N3CCCC(C)C3)cc2)n1 (stereo not drawn) | inactive: -13% |
| CCc1nnc(SCc2nc(-c3ccccc3Cl)oc2C)c2cc3sc(C)cc3n12 | inactive: 20.9% |
| O=C(Nc1nc2c(F)cccc2s1)c1ccc(S(=O)(=O)N2CCOCC2)cc1 | inactive: -9.38% |
| CCCC(=O)N1CCc2cc(OC)c(OC)cc2C1COc1ccccc1OC (stereo not drawn) | inactive: 3.4% |
| Cc1ccn2c(NC(=O)c3cccc(Cl)c3)c(-c3ccccc3)nc2c1 | inactive: -1.61% |
| Cc1cccc(C)c1NC(=O)Cn1c(=O)n(Cc2ccc(C(=O)NCc3ccco3)cc2)c(=O)c2sccc21 | inactive: -9.84% |
| CCOC(=O)Cc1cc(C(=O)Nc2ccc(Br)cc2)sc1-c1ccc(C)cc1 | inactive: -9.14% |
| CCOc1ccc(C(=O)c2cn(CC(=O)Nc3ccc(OC)cc3)c3cc4c(cc3c2=O)OCO4)cc1 | inactive: 26.3% |
| O=C(NCC(c1ccc2c(c1)OCO2)N1CCN(c2ccccc2)CC1)C(=O)Nc1ccc(F)cc1 (stereo not drawn) | inactive: 4.33% |

| SMILES | activity change, negative = cytotoxicity |
| --- | --- |
| CC1CCN(S(=O)(=O)c2ccc3c(c2)CCN3C(=O)Nc2cccc(Br)c2)CC1 | inactive: 13.8% |
| Cc1ccc(-c2nc3n(n2)C(c2ccccc2Cl)C=C(c2ccc(Cl)cc2)N3)cc1 (stereo not drawn) | inactive: -8.5% |
| CCOC(=O)c1ccc(CN(Cc2ccc(C)cc2)S(=O)(=O)c2ccc(F)c(C(=O)Nc3ccc(C)c(F)c3)c2)cc1 | inactive: -11.7% |
| CCOCCc1nn2c(=O)cc(COC(=O)c3ccccc3NC(=O)c3ccccc3F)nc2s1 | inactive: 4.57% |
| Cc1ccc(S(=O)(=O)NC2(C(F)(F)F)NC(=O)N(c3ccc(F)cc3)C2=O)cc1 (stereo not drawn) | inactive: 4.38% |
| COC(=O)c1sccc1S(=O)(=O)N(CC(=O)NCc1ccc(C)cc1)c1ccccc1 | inactive: 15.2% |
| N#Cc1c[nH]n2c(NC3CCCC3)c(-c3cccc(Br)c3)nc12 | inactive: -5.53% |
| CCOC(=O)c1c(C)[nH]c(C)c1S(=O)(=O)N1CCCC(C(=O)Nc2ncccc2C)C1 (stereo not drawn) | inactive: 11.6% |
| CC(C)CCn1c(=O)c2cccnc2n(CC(=O)Nc2ccccc2)c1=O | inactive: 6.62% |
| CCS(=O)(=O)N1CC(=O)N(c2cccc(Cl)c2)C(C)(C(=O)NC2CCCCCC2)C1 (stereo not drawn) | inactive: -0.386% |
| Cc1oc(-c2ccc(C(=O)NCCC(C)C)cc2)nc1CS(=O)(=O)c1ccccc1 | inactive: -29.2% |
| COc1ccccc1CCNC(=O)C(=O)NCC(c1ccco1)S(=O)(=O)c1cccs1 (stereo not drawn) | inactive: -18.6% |
| COc1ccc(C(=O)Nc2ccc(NC(=O)c3cccs3)cc2)cc1OC | inactive: -2.88% |
| CN(C)c1ccc(CN(Cc2ccco2)C(=O)COc2ccc(F)cc2)cc1 | inactive: 4.94% |
| CC(C)CNC(=O)N1CCN(S(=O)(=O)c2ccc3c(ccn3C)c2)CC1 | inactive: -0.35% |
| COc1ccc(Cn2ccnc2SCC(=O)Nc2ccc3c(c2)OCO3)cc1 | inactive: 1.6% |
| COc1ccc(-c2cc(C(F)(F)F)n3nc(C(=O)Nc4cc(C(F)(F)F)ccc4Cl)cc3n2)cc1OC | inactive: 9.75% |
| Cc1ccc2oc3c(c(=O)c2c1)C(c1ccccc1F)N(c1ccccn1)C3=O (stereo not drawn) | inactive: -10.6% |
| Cc1ccc(C(C(=O)NC2CCCCC2)N(C)Cc2ccccc2)cc1 (stereo not drawn) | inactive: -3.57% |
| CCOC(=O)c1ccccc1NC(=O)Cn1nnc2sc3c(c2c1=O)CCCC3 | inactive: 1.88% |
| Cc1ccc(NC(=O)Cn2c(=O)c(C(F)(F)F)nc3ccccc32)cc1C | inactive: -22.9% |
| CCOC(=O)c1ccccc1Nc1nc2ccc(C)cc2n2nnnc12 | inactive: 2.33% |
| Cc1cccc(C)c1NC(=O)c1nc(S(C)(=O)=O)ncc1N(Cc1ccc(C(C)(C)C)cc1)Cc1ccco1 | inactive: -1.82% |
| Cn1cc(-c2cc3n(n2)CCC(=O)N3CCCC(=O)NCc2ccc(F)cc2)c2ccccc21 | inactive: -11.1% |
